Our source for the self-cleavage values is the RNAGym collection of RNA variant scans (doi:10.1093/nar/gkz1192).

To fix the notation:
B1: CPEB3 Ribozyme (parent)
chain: UAACAGGGGGCCACAGCAGAAGCGUUCACGUCGCAGCCCCUGUCAGAUUCUGGUGAAUCUGCGAAUUCUGCUGUAUAUCUC

Read counts are not given, so values of variants with three or more changes are uncertain.

In the data set the parent is B1. Nature of the data set: self-cleavage, relative activity (ratio to wild type); higher = more cleavage; in vitro, sequencing. In outline: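 CPEB3 self-cleaving ribozyme mutant libraries were made by rounds of error-prone PCR, barcoded, and transcribed in vitro with T7 RNA polymerase for 5 hours at 37°C. Cleavage occurred during transcription and a 15 min DNase I step before EDTA stop. RNAs were reverse transcribed with template switching and Illumina-sequenced, with DNA sequencing mapping barcodes to variants. Relative activity is the variant's cleaved/total read fraction divided by wild type's (minimum 5 reads), averaged across three batches.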
For the variant U43C U48A A57G A77U, the self-cleavage amounted to 0.17.

For A45G U60A U78C, the self-cleavage came to 0.53.

Consider A45C U51C A65G U72C, for which the self-cleavage amounted to 0.09.

With U43C U58G U60A U67C, the self-cleavage is 0.07.

For U43C U54G U78C, the self-cleavage was 0.33.

Take A45U U54C A56U: the self-cleavage is 0.17.

For the variant U43C U60A U66A, the self-cleavage was determined as 0.1.

As to A45C A47G U54C U78C, the self-cleavage was determined as 0.45.

Take A45G A57G U78C: the self-cleavage came out at 0.54.

For the variant A45G C62G U78A, the self-cleavage was determined as 0.16.

As to A45G G46A A47G U67A, the self-cleavage was determined as 0.31.

Turning to U43C U67A A75G, the self-cleavage was determined as 0.1.

As for U43C U60A A77G, the self-cleavage stood at 0.12.

Regarding U43C U54C A65C U67C, the self-cleavage worked out at 0.07.

As for U43C A56U U66G U74C U80C, the self-cleavage amounted to 0.11.

With U43C A64U U69C, the self-cleavage amounted to 0.1.

Regarding A45C U51A U54G A64U A65U U72C G73A, the self-cleavage was 0.07.

As to U43C U60A U78A, the self-cleavage is 0.23.

A45G A47G U69C U80C: the self-cleavage is 0.24.

Take C44A A45G U51G U58C U80A: the self-cleavage worked out at 0.

As for U43C U49C U60C U76A, the self-cleavage was 0.09.

U43G U58C A64G: the self-cleavage was 0.18.

Take C44U U51A U80C: the self-cleavage was 0.15.

For the variant A45U G46A U54A A57G A77C C81U, the self-cleavage was determined as 0.03.

For the variant A45G U51A U60A C81U, the self-cleavage came to 0.78.

Take A45U U49C A56U G70A U78A: the self-cleavage worked out at 0.04.

Regarding U43C C50U U58A A64G U76C A77G, the self-cleavage was determined as 0.07.

In the case of U43C U51G C68A, the self-cleavage came to 0.21.

A45C U51A U58C U67C: the self-cleavage came to 0.13.

Take A45G U66C U72C: the self-cleavage is 0.42.

Consider A45G U51A A56G, for which the self-cleavage worked out at 0.33.

With A45G U60A U72A, the self-cleavage was found to be 0.4.

C44G A57G C68A: the self-cleavage stood at 0.24.

With U43C A64G U72C A75U, the self-cleavage was 0.44.

Consider A45G G46A U54A U67C, for which the self-cleavage worked out at 0.34.

For U43C U51C G52U U69A U72C, the self-cleavage worked out at 0.43.

Regarding U43G U51A U60C U69C, the self-cleavage turned out to be 0.09.

For the variant U43C A64G U69C, the self-cleavage was determined as 0.14.

On to A45C A56G A64G, for which the self-cleavage turned out to be 0.43.

With A45U A64U U67A, the self-cleavage was 0.2.

On to A45G U51C U78C, for which the self-cleavage stood at 0.6.

For A45G U72C U80C, the self-cleavage came out at 1.24.

Turning to A45G C62U G73A, the self-cleavage turned out to be 0.28.

In the case of U43C A56U U72G, the self-cleavage turned out to be 0.38.

With A45G G46A U48C A75U, the self-cleavage is 0.17.

As for A45G G46A U48C U58G C62U U78C, the self-cleavage is 0.11.

In the case of U43G U54C A64G A75C, the self-cleavage is 0.12.

With U43C U58C A64G U69C U78C, the self-cleavage was found to be 0.05.

With A45G U51C U69C, the self-cleavage was found to be 0.43.

For A45U U48C U51C, the self-cleavage was found to be 0.5.

Take A45U A56G A65G: the self-cleavage worked out at 0.12.

Take U43C U69C U78C: the self-cleavage stood at 0.43.

Regarding U43C U54C U60C G73A U80C, the self-cleavage was determined as 0.25.

Consider A45G U67A U80A, for which the self-cleavage was 0.3.

As for A45C A77U C81A, the self-cleavage is 0.29.

For the variant A45G G52C A56G U72A, the self-cleavage is 0.37.

For the variant A45G U66A U72C, the self-cleavage amounted to 0.41.

Regarding A45G U60C A64U U74A A75C, the self-cleavage is 0.61.

In the case of A45U C62U U72C, the self-cleavage was determined as 0.16.

Consider U43C U51A G70U, for which the self-cleavage is 0.16.

For the variant U43C A64G U76A, the self-cleavage turned out to be 0.54.

For A45C G70A G73A, the self-cleavage was found to be 0.4.

Take U43G C50U U74G: the self-cleavage came to 0.12.

Turning to A45C A56G U60A U76A, the self-cleavage is 0.4.

Regarding C44U A65G U67C, the self-cleavage was 0.14.

Turning to U43C A57G U69A U72C, the self-cleavage was found to be 0.14.

In the case of A45C G63A U72C, the self-cleavage is 0.23.

In the case of U43C U49A U69A, the self-cleavage turned out to be 0.13.

On to U43C U48C U67A U74C, for which the self-cleavage worked out at 0.06.

U43G G46A U49C A77G: the self-cleavage was 0.14.

Turning to A45U U60A U67G U72A, the self-cleavage stood at 0.11.

In the case of A45G A65U U66C, the self-cleavage was 0.2.

In the case of A45G G70A A75U, the self-cleavage was found to be 0.35.

Turning to U43G C44U U78C, the self-cleavage is 0.27.

Take A45G U72A U80C: the self-cleavage was found to be 1.23.

In the case of A45C U48C G53U U72C, the self-cleavage was 0.18.

A45U U54C U58A A65G U74A: the self-cleavage is 0.09.

A45G U49C C79G: the self-cleavage came to 0.1.

In the case of A45C U58C U60C, the self-cleavage turned out to be 0.41.

On to A45U A57G U60A, for which the self-cleavage worked out at 1.12.

In the case of A45G U51A U80C, the self-cleavage was determined as 0.67.

For the variant A45U G55U C62U, the self-cleavage amounted to 0.11.

Take A45U U67A U69C U72C A77U: the self-cleavage was 0.18.

For the variant C44U A65U U78C, the self-cleavage was found to be 0.14.

As for U43C U60C U74C, the self-cleavage turned out to be 0.25.

As for U43C U54C U80A, the self-cleavage was 0.46.

With A45U U48C U69C, the self-cleavage worked out at 0.15.

Consider A45G A56G G61A A77U U78C, for which the self-cleavage came out at 0.64.

As for A45U U54C U78A, the self-cleavage came to 0.53.

As to C44A A56G C79U, the self-cleavage was found to be 0.34.

For U43C A65U U72C, the self-cleavage is 0.18.

U43C A57G A64G U72C: the self-cleavage worked out at 0.32.

Consider C44U A47G A57C G63A U69C, for which the self-cleavage was 0.15.

Turning to A45C A64U U69C, the self-cleavage was 0.07.

With U43C U60C C81G, the self-cleavage turned out to be 0.27.

In the case of U43C U60G A75U, the self-cleavage came to 0.18.

For the variant A45G C79G U80C C81U, the self-cleavage was 1.

A45G U51C U54C A77G: the self-cleavage amounted to 0.3.

As to A45G U48C U54C U72C, the self-cleavage was 0.22.

On to A45G U51C U58A U60C U80C, for which the self-cleavage was 0.6.

For the variant A45G U60A U67C, the self-cleavage was 0.3.

As to A45U G73A U80C, the self-cleavage is 1.26.

For A45C U60C A64G U72A, the self-cleavage was determined as 0.16.

A45U U51A U78A: the self-cleavage worked out at 0.37.

Take A45U U69A U78C: the self-cleavage worked out at 0.35.

As to A45U U49C U76C A77C, the self-cleavage is 0.32.

On to U43C G63U U74G U80C, for which the self-cleavage amounted to 1.11.

For the variant A45G U48C U54G A64U, the self-cleavage came out at 0.17.

Consider U43C U54A U60C, for which the self-cleavage worked out at 0.15.

For the variant A45U A64U U78C, the self-cleavage worked out at 0.16.

As for A45U G63U U80A, the self-cleavage came to 0.64.

Consider A45U U48C U72C, for which the self-cleavage was 0.35.

Regarding U43C C50A G53A U69A U78G, the self-cleavage is 0.26.

In the case of C44A U48C U51C, the self-cleavage is 0.05.

For the variant U43C U51G A56U U80C, the self-cleavage is 0.21.

On to U43C A57G U58C U69C, for which the self-cleavage stood at 0.21.

With U43C U60C U69A, the self-cleavage turned out to be 0.02.

With A45U U60C U66C U72A, the self-cleavage amounted to 0.16.

Take A45G U51A U60C: the self-cleavage came out at 1.17.

With A45G A57G U72C, the self-cleavage was determined as 0.54.

For A45G U58C U60C U72C U74C A75G, the self-cleavage amounted to 0.42.

For A45G A56G G63A, the self-cleavage turned out to be 0.64.

For U43C U60C U80C, the self-cleavage was found to be 0.25.

On to A45G U66C U74A, for which the self-cleavage worked out at 0.35.

A45U U51C A57G U58C: the self-cleavage was 0.22.

For the variant U43C U54A U78C C79G, the self-cleavage turned out to be 0.63.

Turning to U43C U58C U80C, the self-cleavage was 0.29.

As to A45G A47G U60A U66C U80C, the self-cleavage was found to be 0.09.

In the case of A45U U54C U60A, the self-cleavage worked out at 1.07.

For the variant U43G A56U U67A U80C, the self-cleavage turned out to be 0.15.

Turning to A45G A57G U76A, the self-cleavage is 0.67.

For the variant A45U A64G U74C U78C, the self-cleavage is 0.36.

For C44U U48C U49C U66C U78C, the self-cleavage came to 0.07.

As for A45U U72C A75C, the self-cleavage is 0.77.

With U43C C50U U58A U69C U76C, the self-cleavage came to 0.08.

On to U43C G52A A64U, for which the self-cleavage was 0.38.

On to U43C U60A U80A, for which the self-cleavage was 0.44.

For the variant A45C U54G U60C A64G, the self-cleavage was found to be 0.37.

For U43C U48C G53U, the self-cleavage was 0.62.

With A45U U49A U58A, the self-cleavage was 0.41.

In the case of A45U A64U U72C, the self-cleavage is 0.4.

A45G U51C U60C: the self-cleavage came to 0.93.

For the variant A45G U54C U72C U74C C79A, the self-cleavage was 1.23.

Take A45G A47G U72A U76C: the self-cleavage was found to be 0.45.

A45U A47G A56G A77C: the self-cleavage came to 0.1.

In the case of A45G A47G U54C U58A A64U A65U, the self-cleavage was determined as 0.14.

As to A45C U72C U80C, the self-cleavage was determined as 0.69.

Take A45C A56G A65U: the self-cleavage turned out to be 0.15.

Take A45G U58C A77U: the self-cleavage came out at 0.34.

As for A45G A64G A77U, the self-cleavage was 0.8.

For A45G U54C C79A, the self-cleavage came to 1.06.

Consider A45G G63U A64G, for which the self-cleavage was determined as 0.49.

As to A45U A56G A75U A77U, the self-cleavage stood at 0.17.

On to A45G C71U U72A U80C, for which the self-cleavage is 0.97.

Consider A45G A65U U69C U72C, for which the self-cleavage was 0.36.

As for A45U A64G U76A, the self-cleavage is 0.39.

U43C G61C C79U: the self-cleavage amounted to 0.21.

A45G U58A U67C: the self-cleavage came out at 0.35.

Turning to A45U G63A U76G, the self-cleavage amounted to 0.38.

For A45G U49A U51C U67C C71U A77G, the self-cleavage was 0.16.

Consider C44U A56G U69C U76C, for which the self-cleavage came to 0.18.

Consider A45C U54C U72A U80C, for which the self-cleavage was found to be 0.48.

For the variant U43C U67A U74A A75G, the self-cleavage was 0.07.

As for A45U U51A A77G, the self-cleavage was found to be 0.22.

On to A45G G63C C71A U80C, for which the self-cleavage turned out to be 0.4.

As to C44A A45G U48A U49C, the self-cleavage turned out to be 0.23.

A45U U54A U72C C81U: the self-cleavage is 1.08.
